From the supplement of paper PMC12230231
± gives the standard deviation of the averaged measurements. Restriction of a single-cycle SIVsab GFP reporter by TRIM5α v1-loop variants in CRFK cells. Human variants: read share among cells still uninfected after two challenges over input, higher = gained restriction. Rhesus variants: share among infected cells over input, higher = lost restriction. Reporter dose not given per row. No active / inactive call per row; the paper calls a change when both replicates lie above its controls (mean + 2 SD of stop or wild-type variants, or the top frameshift score). Residues outside the varied loop are taken from Swiss-Prot. The paper reads the human single-substitution scores as noise; they and the rhesus combinations repeat poorly (rank correlation 0.3 to 0.4), indel scores repeat only for the top variants, rhesus substitutions well (0.9).

Tested on: SIVsab (simian immunodeficiency virus of sabaeus monkeys), single-cycle GFP reporter, in CRFK cells
Test: enrichment among uninfected cells over input (fold); higher = stronger restriction
Settings: library: human / rhesus combinations
Procedure: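 Pools of CRFK cells expressing variants of the TRIM5α v1 loop were challenged with the single-cycle reporter, sorted by GFP and sequenced; mean of two replicates.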

Sequence | enrichment
MASGILVNVKEEVTCPICLELLTQPLSLDCGHSFCQACLTANHKKSMLDKGESSCPVCRISYQPENIRPNRHVANIVEKLREVKLSPEGQKVDHCARHGEKLLLFCQEDGKVICWLCERSQEHRGHHTFLTEEVAREYQVKLQAALEMLRQKQQEAEELEADIREEKASWKTQIQYDKTNVLADFEQLRDILDWEESNELQNLEKEEEDILKSLTNSETEMVQQTQSLRELISDLEHRLQGSVMELLQGVDGVIKRTENVTLKKPETFPKNQRRVFRAPDLKGMLEVFRELTDVRRYWVDVTVAPNNISCAVISEDKRQVSSPKPQIIYQARGTLFTFPTLTNFNYCTGILGSQSITSGKHYWEVDVSKKTAWILGVCAGFQPDAMCNIEKNENYQPKYGYWVIGLEEGVKCSAFQDSSFHTPSVPFIVPLSVIICPDRVGVFLDYEACTVSFFNITNHGFLIYKFSHCSFSQPVFPYLNPRKCGVPMTLCSPSS [human TRIM5α, 330-340 = QARGTLFTFPTLT] | 0.783 ± 0.091
MASGILVNVKEEVTCPICLELLTQPLSLDCGHSFCQACLTANHKKSMLDKGESSCPVCRISYQPENIRPNRHVANIVEKLREVKLSPEGQKVDHCARHGEKLLLFCQEDGKVICWLCERSQEHRGHHTFLTEEVAREYQVKLQAALEMLRQKQQEAEELEADIREEKASWKTQIQYDKTNVLADFEQLRDILDWEESNELQNLEKEEEDILKSLTNSETEMVQQTQSLRELISDLEHRLQGSVMELLQGVDGVIKRTENVTLKKPETFPKNQRRVFRAPDLKGMLEVFRELTDVRRYWVDVTVAPNNISCAVISEDKRQVSSPKPQIIYQARGTLFTFQTLTNFNYCTGILGSQSITSGKHYWEVDVSKKTAWILGVCAGFQPDAMCNIEKNENYQPKYGYWVIGLEEGVKCSAFQDSSFHTPSVPFIVPLSVIICPDRVGVFLDYEACTVSFFNITNHGFLIYKFSHCSFSQPVFPYLNPRKCGVPMTLCSPSS [human TRIM5α, 330-340 = QARGTLFTFQTLT] | 0.0575 ± 0.0057
MASGILVNVKEEVTCPICLELLTQPLSLDCGHSFCQACLTANHKKSMLDKGESSCPVCRISYQPENIRPNRHVANIVEKLREVKLSPEGQKVDHCARHGEKLLLFCQEDGKVICWLCERSQEHRGHHTFLTEEVAREYQVKLQAALEMLRQKQQEAEELEADIREEKASWKTQIQYDKTNVLADFEQLRDILDWEESNELQNLEKEEEDILKSLTNSETEMVQQTQSLRELISDLEHRLQGSVMELLQGVDGVIKRTENVTLKKPETFPKNQRRVFRAPDLKGMLEVFRELTDVRRYWVDVTVAPNNISCAVISEDKRQVSSPKPQIIYQAPGTLFTFPSLVNFNYCTGILGSQSITSGKHYWEVDVSKKTAWILGVCAGFQPDAMCNIEKNENYQPKYGYWVIGLEEGVKCSAFQDSSFHTPSVPFIVPLSVIICPDRVGVFLDYEACTVSFFNITNHGFLIYKFSHCSFSQPVFPYLNPRKCGVPMTLCSPSS [human TRIM5α, 330-340 = QAPGTLFTFPSLV] | 45.3 ± 26
MASGILVNVKEEVTCPICLELLTQPLSLDCGHSFCQACLTANHKKSMLDKGESSCPVCRISYQPENIRPNRHVANIVEKLREVKLSPEGQKVDHCARHGEKLLLFCQEDGKVICWLCERSQEHRGHHTFLTEEVAREYQVKLQAALEMLRQKQQEAEELEADIREEKASWKTQIQYDKTNVLADFEQLRDILDWEESNELQNLEKEEEDILKSLTNSETEMVQQTQSLRELISDLEHRLQGSVMELLQGVDGVIKRTENVTLKKPETFPKNQRRVFRAPDLKGMLEVFRELTDVRRYWVDVTVAPNNISCAVISEDKRQVSSPKPQIIYGARGTLYTFPTLVNFNYCTGILGSQSITSGKHYWEVDVSKKTAWILGVCAGFQPDAMCNIEKNENYQPKYGYWVIGLEEGVKCSAFQDSSFHTPSVPFIVPLSVIICPDRVGVFLDYEACTVSFFNITNHGFLIYKFSHCSFSQPVFPYLNPRKCGVPMTLCSPSS [human TRIM5α, 330-340 = GARGTLYTFPTLV] | 0.556 ± 0.64
MASGILVNVKEEVTCPICLELLTQPLSLDCGHSFCQACLTANHKKSMLDKGESSCPVCRISYQPENIRPNRHVANIVEKLREVKLSPEGQKVDHCARHGEKLLLFCQEDGKVICWLCERSQEHRGHHTFLTEEVAREYQVKLQAALEMLRQKQQEAEELEADIREEKASWKTQIQYDKTNVLADFEQLRDILDWEESNELQNLEKEEEDILKSLTNSETEMVQQTQSLRELISDLEHRLQGSVMELLQGVDGVIKRTENVTLKKPETFPKNQRRVFRAPDLKGMLEVFRELTDVRRYWVDVTVAPNNISCAVISEDKRQVSSPKPQIIYGAPGTLFPSFTNFNYCTGILGSQSITSGKHYWEVDVSKKTAWILGVCAGFQPDAMCNIEKNENYQPKYGYWVIGLEEGVKCSAFQDSSFHTPSVPFIVPLSVIICPDRVGVFLDYEACTVSFFNITNHGFLIYKFSHCSFSQPVFPYLNPRKCGVPMTLCSPSS [human TRIM5α, 330-340 = GAPGTLFPSFT] | 1.17 ± 1.7
MASGILVNVKEEVTCPICLELLTQPLSLDCGHSFCQACLTANHKKSMLDKGESSCPVCRISYQPENIRPNRHVANIVEKLREVKLSPEGQKVDHCARHGEKLLLFCQEDGKVICWLCERSQEHRGHHTFLTEEVAREYQVKLQAALEMLRQKQQEAEELEADIREEKASWKTQIQYDKTNVLADFEQLRDILDWEESNELQNLEKEEEDILKSLTNSETEMVQQTQSLRELISDLEHRLQGSVMELLQGVDGVIKRTENVTLKKPETFPKNQRRVFRAPDLKGMLEVFRELTDVRRYWVDVTVAPNNISCAVISEDKRQVSSPKPQIIYQAPGTLFTFQTFTNFNYCTGILGSQSITSGKHYWEVDVSKKTAWILGVCAGFQPDAMCNIEKNENYQPKYGYWVIGLEEGVKCSAFQDSSFHTPSVPFIVPLSVIICPDRVGVFLDYEACTVSFFNITNHGFLIYKFSHCSFSQPVFPYLNPRKCGVPMTLCSPSS [human TRIM5α, 330-340 = QAPGTLFTFQTFT] | 0.205 ± 0.057
MASGILVNVKEEVTCPICLELLTQPLSLDCGHSFCQACLTANHKKSMLDKGESSCPVCRISYQPENIRPNRHVANIVEKLREVKLSPEGQKVDHCARHGEKLLLFCQEDGKVICWLCERSQEHRGHHTFLTEEVAREYQVKLQAALEMLRQKQQEAEELEADIREEKASWKTQIQYDKTNVLADFEQLRDILDWEESNELQNLEKEEEDILKSLTNSETEMVQQTQSLRELISDLEHRLQGSVMELLQGVDGVIKRTENVTLKKPETFPKNQRRVFRAPDLKGMLEVFRELTDVRRYWVDVTVAPNNISCAVISEDKRQVSSPKPQIIYQAPGTLYTFPSLTNFNYCTGILGSQSITSGKHYWEVDVSKKTAWILGVCAGFQPDAMCNIEKNENYQPKYGYWVIGLEEGVKCSAFQDSSFHTPSVPFIVPLSVIICPDRVGVFLDYEACTVSFFNITNHGFLIYKFSHCSFSQPVFPYLNPRKCGVPMTLCSPSS [human TRIM5α, 330-340 = QAPGTLYTFPSLT] | 0.0302 ± 0.035

Same assay, conditions: library: insertions and deletions

Sequence | enrichment
MASGILVNVKEEVTCPICLELLTQPLSLDCGHSFCQACLTANHKKSMLDKGESSCPVCRISYQPENIRPNRHVANIVEKLREVKLSPEGQKVDHCARHGEKLLLFCQEDGKVICWLCERSQEHRGHHTFLTEEVAREYQVKLQAALEMLRQKQQEAEELEADIREEKASWKTQIQYDKTNVLADFEQLRDILDWEESNELQNLEKEEEDILKSLTNSETEMVQQTQSLRELISDLEHRLQGSVMELLQGVDGVIKRTENVTLKKPETFPKNQRRVFRAPDLKGMLEVFRELTDVRRYWVDVTVAPNNISCAVISEDKRQVSSPKPQIIYGARGTRYQTYQTFVNFNYCTGILGSQSITSGKHYWEVDVSKKTAWILGVCAGFQPDAMCNIEKNENYQPKYGYWVIGLEEGVKCSAFQDSSFHTPSVPFIVPLSVIICPDRVGVFLDYEACTVSFFNITNHGFLIYKFSHCSFSQPVFPYLNPRKCGVPMTLCSPSS [human TRIM5α, 3-codon duplication at 336] | 0.24 ± 0.01
MASGILVNVKEEVTCPICLELLTQPLSLDCGHSFCQACLTANHKKSMLDKGESSCPVCRISYQPENIRPNRHVANIVEKLREVKLSPEGQKVDHCARHGEKLLLFCQEDGKVICWLCERSQEHRGHHTFLTEEVAREYQVKLQAALEMLRQKQQEAEELEADIREEKASWKTQIQYDKTNVLADFEQLRDILDWEESNELQNLEKEEEDILKSLTNSETEMVQQTQSLRELISDLEHRLQGSVMELLQGVDGVIKRTENVTLKKPETFPKNQRRVFRAPDLKGMLEVFRELTDVRRYWVDVTVAPNNISCAVISEDKRQVSSPKPQIIRGTRYQTFVNFNYCTGILGSQSITSGKHYWEVDVSKKTAWILGVCAGFQPDAMCNIEKNENYQPKYGYWVIGLEEGVKCSAFQDSSFHTPSVPFIVPLSVIICPDRVGVFLDYEACTVSFFNITNHGFLIYKFSHCSFSQPVFPYLNPRKCGVPMTLCSPSS [human TRIM5α, 3-codon deletion at 329] | 1.17 ± 0.26
MASGILVNVKEEVTCPICLELLTQPLSLDCGHSFCQACLTANHKKSMLDKGESSCPVCRISYQPENIRPNRHVANIVEKLREVKLSPEGQKVDHCARHGEKLLLFCQEDGKVICWLCERSQEHRGHHTFLTEEVAREYQVKLQAALEMLRQKQQEAEELEADIREEKASWKTQIQYDKTNVLADFEQLRDILDWEESNELQNLEKEEEDILKSLTNSETEMVQQTQSLRELISDLEHRLQGSVMELLQGVDGVIKRTENVTLKKPETFPKNQRRVFRAPDLKGMLEVFRELTDVRRYWVDVTVAPNNISCAVISEDKRQVSSPKPQIIYGARGTRYQTFVNFNYGILGSQSITSGKHYWEVDVSKKTAWILGVCAGFQPDAMCNIEKNENYQPKYGYWVIGLEEGVKCSAFQDSSFHTPSVPFIVPLSVIICPDRVGVFLDYEACTVSFFNITNHGFLIYKFSHCSFSQPVFPYLNPRKCGVPMTLCSPSS [human TRIM5α, 2-codon deletion at 345] | 0.427 ± 0.28
MASGILVNVKEEVTCPICLELLTQPLSLDCGHSFCQACLTANHKKSMLDKGESSCPVCRISYQPENIRPNRHVANIVEKLREVKLSPEGQKVDHCARHGEKLLLFCQEDGKVICWLCERSQEHRGHHTFLTEEVAREYQVKLQAALEMLRQKQQEAEELEADIREEKASWKTQIQYDKTNVLADFEQLRDILDWEESNELQNLEKEEEDILKSLTNSETEMVQQTQSLRELISDLEHRLQGSVMELLQGVDGVIKRTENVTLKKPETFPKNQRRVFRAPDLKGMLEVFRELTDVRRYWVDVTVAPNNISCAVISEDKRQVSSPKPQIIYGARGTRYQTFVNFNYSITSGKHYWEVDVSKKTAWILGVCAGFQPDAMCNIEKNENYQPKYGYWVIGLEEGVKCSAFQDSSFHTPSVPFIVPLSVIICPDRVGVFLDYEACTVSFFNITNHGFLIYKFSHCSFSQPVFPYLNPRKCGVPMTLCSPSS [human TRIM5α, 8-codon deletion at 345] | 0.984 ± 1.2
MASGILVNVKEEVTCPICLELLTQPLSLDCGHSFCQACLTANHKKSMLDKGESSCPVCRISYQPENIRPNRHVANIVEKLREVKLSPEGQKVDHCARHGEKLLLFCQEDGKVICWLCERSQEHRGHHTFLTEEVAREYQVKLQAALEMLRQKQQEAEELEADIREEKASWKTQIQYDKTNVLADFEQLRDILDWEESNELQNLEKEEEDILKSLTNSETEMVQQTQSLRELISDLEHRLQGSVMELLQGVDGVIKRTENVTLKKPETFPKNQRRVFRAPDLKGMLEVFRELTDVRRYWVDVTVAPNNISCAVISEDKRQVSSPKPQIIYGIIYGARGTRYQTFVNFNYCTGILGSQSITSGKHYWEVDVSKKTAWILGVCAGFQPDAMCNIEKNENYQPKYGYWVIGLEEGVKCSAFQDSSFHTPSVPFIVPLSVIICPDRVGVFLDYEACTVSFFNITNHGFLIYKFSHCSFSQPVFPYLNPRKCGVPMTLCSPSS [human TRIM5α, 4-codon duplication at 327] | 0.671 ± 0.69
